Test results published in PubChem BioAssay AID1721 (National Center for Advancing Translational Sciences (NCATS), 2009).
Screen size: about 290,000 compounds; about 1,100 (0.38%) were called active. This list was built around the results that the source calls inconclusive (neither active nor inactive); the mix of calls is not that of the screen. Calls follow the shape of the dose curve; as a rule, active = well fitted inhibition curve with a large enough effect; inconclusive = small, poorly fitted or top-dose-only effect, or another doubt; inactive = no such curve, though single readings can be large or run the other way. Where the call is inconclusive, the potency comes from a doubtful curve fit.

molecular target: Pyruvate kinase (Leishmania mexicana) (UniProt Q27686); test: qHTS Assay for Inhibitors of Leishmania Mexicana Pyruvate Kinase (LmPK); settings: purified LmPK, Kinase-Glo ATP luminescence, 1 h; activity change, negative = inhibition: at 57.5 µM (top of the series) unless noted
UniProt Q27686, sequence (Q27686 whole entry, looked up): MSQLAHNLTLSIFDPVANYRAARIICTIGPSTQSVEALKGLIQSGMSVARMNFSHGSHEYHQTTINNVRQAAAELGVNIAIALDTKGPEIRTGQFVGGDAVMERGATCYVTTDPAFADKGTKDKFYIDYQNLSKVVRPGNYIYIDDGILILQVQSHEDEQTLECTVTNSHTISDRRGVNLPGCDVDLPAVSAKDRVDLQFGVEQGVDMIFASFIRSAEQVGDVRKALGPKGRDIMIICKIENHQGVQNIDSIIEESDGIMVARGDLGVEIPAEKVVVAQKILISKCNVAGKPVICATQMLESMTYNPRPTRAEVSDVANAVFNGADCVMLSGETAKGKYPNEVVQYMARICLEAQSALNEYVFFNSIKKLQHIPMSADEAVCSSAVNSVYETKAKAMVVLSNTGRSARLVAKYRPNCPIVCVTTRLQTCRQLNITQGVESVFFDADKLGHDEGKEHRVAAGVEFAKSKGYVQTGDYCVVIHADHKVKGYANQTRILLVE
Procedure, shortened: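 Purified LmPK (0.1 nM) with 0.5 mM PEP and 0.1 mM ADP in imidazole buffer pH 7.2 with MgCl2/KCl, 1 h at room temperature. ATP formed was read by luciferase luminescence and normalized to no-enzyme and uninhibited controls.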
% is scaled to controls: 0 for no effect and ±100 for the full control effect; potency is read from the fitted curve at half-maximal effect; tags tell the direction and shape of the fitted curve.

With C#CCOCCOCCOCCNc1nc(N2CCN(C(=O)[C@H](CCCCN)n3cc([C@@H](N)CO)nn3)CC2)nc(N2CCN(C(=O)[C@H](Cc3ccc(O)cc3)n3cc([C@@H](N)CC(C)C)nn3)CC2)n1 as the compound, how does the “activity change, negative = inhibition” value read?
Its value is inactive: 0.24%.

Cn1c2c(c(=O)[nH]c1=O)C(c1ccc(O)cc1)C1=C(N2)c2ccccc2C1=O (stereo not given) was tested. Which Potency did it give?
Its Potency is inconclusive: 28.2 µM [falling, partial curve].

Which Potency does the source give for O=C(Nc1ccccc1)Nc1cccc2nsnc12 here?
The Potency was inconclusive: 14.1 µM [falling, partial curve].

Which Potency does the source give for COC(=O)c1ccc(CSc2nc3ccccc3o2)cc1 here?
Its Potency is inconclusive: 25.1 µM [falling, partial curve].

With O=C(Nc1nc2c(F)cccc2s1)C1CC1 as the compound, how does the “activity change, negative = inhibition” value read?
Its value is inactive: -6.93%.

CCCSc1nsc(NC(=O)CC)n1 was tested. Which Potency did it give?
The Potency was inconclusive: 10 µM [falling, partial curve].

Which Potency does the source give for COc1ccc2nc(N=Nc3ccc(N(C)C)cc3)sc2c1 here?
The Potency was inconclusive: 14.1 µM [falling, partial curve].

For O=C(/C=C/c1cccs1)Nc1cccnc1, which Potency is on record?
The Potency was inconclusive: 14.1 µM [falling, partial curve].

For Cc1ccc(C=Nc2ccccc2C#N)s1, which Potency is on record?
The Potency was inconclusive: 15.8 µM [falling, partial curve].

Which Potency does the source give for Cc1ccnc(Nc2nc3ccccc3o2)n1 here?
The Potency was active: 22.4 µM.

For O=C(/C=C/Nc1ccccc1)c1ccccc1, which Potency is on record?
Its Potency is active: 7.94 µM.

How did the Potency turn out when COc1ccc(-c2n[nH]c(=S)n2-c2ccccc2C)cc1OC was run?
The Potency was inconclusive: 31.6 µM [falling, single point].

For CCOC(=O)Nc1sc2c(c1C#N)CCC(C)C2 (stereo not given), which “activity change, negative = inhibition” value is on record?
The value was inactive: -2.95%.

How did the Potency turn out when COc1ccc(-c2n(CC(=O)OC3CC(C)CCC3C(C)C)c3ccccc3[n+]2C)cc1 (stereo not given) was run?
The Potency was inconclusive: 7.08 µM [falling, partial curve].

Cc1ccc2c(c1)c1nnc(SCC(=O)N3CCCc4ccccc43)nc1n2CC(=O)O was tested. Which Potency did it give?
Its Potency is active: 4.47 µM.

For CCc1ccccc1NC(=O)Nc1ccc2c(c1)OCO2, which Potency is on record?
Its Potency is inconclusive: 15.8 µM [falling, partial curve, poor fit].

CSc1nc(C)c2cc(C)oc2n1 was tested. Which “activity change, negative = inhibition” value did it give?
The value was inactive: -8.2%.

With S=c1[nH]nc2c3c4c(sc3ncn12)CCCC4 as the compound, how does the Potency read?
The Potency was inconclusive: 25.1 µM [falling, partial curve].

For Cc1ccc(C(=O)Nn2c(O)c(C=C3N=c4ccccc4=N3)sc2=S)cc1, which “activity change, negative = inhibition” value is on record?
The value was inactive: -1.5%.

Which Potency does the source give for S=c1[nH]nc(-c2cc(-c3ccco3)[nH]n2)n1-c1ccccc1 here?
The Potency was active: 12.6 µM.

COc1cccc(NC(=O)c2ccc3c(c2)N(C)CCS3)c1 was tested. Which Potency did it give?
The Potency was inconclusive: 22.4 µM [falling, single point].

How did the Potency turn out when O=C(Nc1nc2c(s1)CCCC2)c1ccc(Br)o1 was run?
The Potency was inconclusive: 17.8 µM [falling, partial curve].

Cc1c(C(=O)NCc2ccoc2)oc2ccc3c(c12)C(=O)CC(C)(C)O3 was tested. Which “activity change, negative = inhibition” value did it give?
The value was inactive: 0.225%.

For Cc1c(C#N)c(O)n(CCO)c(=O)c1N=Nc1ccc2c(c1)COC2=O, which “activity change, negative = inhibition” value is on record?
The value was inactive: -5.22%.

Which “activity change, negative = inhibition” value does the source give for CCS(=O)(=O)N1CCC(c2nc(-c3ccc(C)cc3)no2)CC1 here?
Its value is inactive: -2.55%.

Which Potency does the source give for O=[N+]([O-])c1ccccc1N/N=C/c1ccc2c(c1)OCO2 here?
The Potency was inconclusive: 17.8 µM [falling, partial curve].

With O=C1c2ccccc2NC(c2ccc(O)c(O)c2)N1c1ccccc1Cl (stereo not given) as the compound, how does the Potency read?
Its Potency is inconclusive: 6.31 µM [falling, partial curve].

How did the Potency turn out when N/C(=N\OC(=O)c1ccc(Cl)cc1)c1cccnc1 was run?
The Potency was inconclusive: 28.2 µM [falling, partial curve].

With CC1(C)C=Cc2cc3ccc(=O)oc3cc2O1 as the compound, how does the Potency read?
Its Potency is inconclusive: 25.1 µM [falling, single point].

With O=C1C(=Cc2ccco2)C(=O)c2ccccc21 as the compound, how does the Potency read?
The Potency was inconclusive: 28.2 µM [falling, partial curve].

How did the “activity change, negative = inhibition” value turn out when CC(=O)N1c2ccccc2C(C)(c2ccccc2)CC1(C)C (stereo not given) was run?
The value was inactive: 6.99%.

For FC(F)(F)c1cccc(-c2nc3nc(Cl)c(Cl)nc3[nH]2)c1, which Potency is on record?
The Potency was inconclusive: 8.91 µM [falling, single point].

CCN1/C(=C/C=C/C=C/c2sc3ccccc3[n+]2CC)Sc2ccccc21 was tested. Which Potency did it give?
Its Potency is inconclusive: 22.4 µM [falling, partial curve].

Which Potency does the source give for CC(/C=C/c1ccc(O)cc1)=N/O here?
The Potency was inconclusive: 25.1 µM [falling, partial curve].

O=C(NC(=S)N1CCOCC1)c1cc2ccccc2o1 was tested. Which Potency did it give?
Its Potency is inconclusive: 17.8 µM [falling, partial curve].

For O=C(N/N=C/c1cccc([N+](=O)[O-])c1)c1c[nH]c2ccccc12, which “activity change, negative = inhibition” value is on record?
The value was inactive: 1%.

Clc1ccc2nc(-c3ccc(Br)s3)cn2c1 was tested. Which Potency did it give?
Its Potency is inconclusive: 28.2 µM [falling, single point].

With Cc1ccc(SCc2cn3c(C)csc3n2)cc1 as the compound, how does the Potency read?
The Potency was inconclusive: 17.8 µM [falling, partial curve].

O=C(/C=C/Nc1ccc(Oc2ccccc2)cc1)c1ccco1 was tested. Which Potency did it give?
Its Potency is active: 7.94 µM.

Which Potency does the source give for COc1ccc(NC(=O)c2ccccc2SC)cc1 here?
Its Potency is inconclusive: 28.2 µM [falling, single point].

For O=c1c2sc(-c3ccccc3)cc2nc2n1CCC2, which Potency is on record?
Its Potency is inconclusive: 17.8 µM [falling, partial curve].

How did the Potency turn out when O=C(Nc1ccccc1)Nc1ncc([N+](=O)[O-])s1 was run?
The Potency was inconclusive: 22.4 µM [falling, single point].

For O=c1nc(Nc2ccccc2)oc2ccccc12, which Potency is on record?
Its Potency is inconclusive: 22.4 µM [falling, single point].

O=C(NC(c1ccccc1)c1ccccc1)c1ccc(CO)cc1 was tested. Which “activity change, negative = inhibition” value did it give?
The value was inactive: 0.185%.

How did the Potency turn out when C=CCNC(=O)c1ccccc1NC(=O)Nc1ccccc1 was run?
The Potency was inconclusive: 31.6 µM [falling, single point].

With Clc1ccccc1OCc1nc(-c2ccccn2)no1 as the compound, how does the Potency read?
The Potency was inconclusive: 22.4 µM [falling, partial curve].

How did the Potency turn out when Cc1ccc(/C=C/c2nc3ccccc3c(=O)[nH]2)cc1 was run?
Its Potency is inconclusive: 17.8 µM [falling, partial curve].

How did the “activity change, negative = inhibition” value turn out when Cc1ccc(C)c(S(=O)(=O)NCc2ccc(C(=O)N3CC(C)OC(C)C3)cc2)c1 (stereo not given) was run?
Its value is inactive: -2.02%.

COc1ccc(OCc2cccc(C(=O)O)c2)cc1 was tested. Which Potency did it give?
Its Potency is active: 15.8 µM.

With Cc1ccc(-c2cc3c(nn2)-c2ccccc2C3=O)cc1 as the compound, how does the Potency read?
Its Potency is active: 7.08 µM.
